Results from a compilation of properties of binary mixtures (doi:10.1016/j.molliq.2020.114573).
The densities may have been worked out from excess volumes.

Assay: xn = mol fraction of the nth substance listed
Conditions: 101.3 kPa

CC1COC(=O)O1 (stereo not drawn) + CC[n+]1ccn(C)c1.O=S(=O)([N-]S(=O)(=O)C(F)(F)F)C(F)(F)F
x2 = 0
Conditions	mass density [kg/m3]
288.15 K	1209.4
293.15 K	1204.1
298.15 K	1198.8
308.15 K	1188.2
313.15 K	1182.9
323.15 K	1172.3
328.15 K	1166.9
333.15 K	1161.6
343.15 K	1151
348.15 K	1145.7

CC[n+]1ccn(C)c1.O=S(=O)([N-]S(=O)(=O)C(F)(F)F)C(F)(F)F + CC1COC(=O)O1
mass density [kg/m3]
Conditions	x1 = 0.1	x1 = 0.2127	x1 = 0.3007	x1 = 0.4227	x1 = 0.5146	x1 = 0.6015	x1 = 0.7004	x1 = 0.8098	x1 = 0.8868	x1 = 1
288.15 K	1290.6	1354.2	1391.4	1430.9	1454.3	1472.6	1490.3	1506.5	1516.5	1529.2
293.15 K	1285.2	1349	–	1425.7	1449	1467.4	1485.2	1501.4	1511.4	–
298.15 K	1279.9	–	1380.8	1420.5	1443.8	1462.2	–	1496.3	1506.3	1519
303.15 K	–	1338.4	1375.6	–	1438.7	1457.1	1474.9	1491.2	1501.2	1513.9
308.15 K	1269.4	1333.2	1370.4	–	1433.5	–	1469.8	1486.1	1496.1	–
313.15 K	1264.1	1327.9	1365.2	1404.9	1428.4	1446.8	1464.7	–	1491.1	–
318.15 K	1258.8	1322.7	–	1399.8	1423.2	–	–	1476	1486	1498.9
323.15 K	1253.6	1317.5	1354.8	1394.6	1418.1	–	1454.5	1471	1481	1493.9
328.15 K	1248.4	–	1349.6	–	–	1431.6	1449.5	1465.9	1476	1488.9
333.15 K	–	1307.1	–	1384.4	1408	1426.5	–	1460.9	1471	1484
338.15 K	–	1302	1339.4	1379.3	1402.9	1421.5	1439.5	1456	1466.1	1479
343.15 K	1232.7	1296.8	1334.2	1374.2	–	1416.5	1434.5	–	1461.2	1474.1
348.15 K	–	–	1329.1	1369.1	1392.8	1411.4	1429.5	1446.1	1456.2	1469.2

CCCC[n+]1ccn(C)c1.O=S(=O)([N-]S(=O)(=O)C(F)(F)F)C(F)(F)F + CC1COC(=O)O1
x1 = 1
Conditions	mass density [kg/m3]
293.15 K	1441.1
298.15 K	1436.3
303.15 K	1431.5
313.15 K	1421.9
318.15 K	1417.2
323.15 K	1412.4
333.15 K	1403
338.15 K	1398.3
343.15 K	1393.7
348.15 K	1389

CC[n+]1ccn(C)c1C.O=S(=O)([N-]S(=O)(=O)C(F)(F)F)C(F)(F)F + CC1COC(=O)O1
mass density [kg/m3]
Conditions	x1 = 0.1001	x1 = 0.2007	x1 = 0.3096	x1 = 0.3983	x1 = 0.5126	x1 = 0.5825	x1 = 0.7004	x1 = 0.8032	x1 = 0.8903	x1 = 1
293.15 K	1279.8	1333	1375	–	–	1442.1	1461.3	1475.2	1485.4	1496.4
298.15 K	1274.5	1327.9	–	1396.3	1423.3	1437.1	1456.3	1470.3	1480.5	1491.5
303.15 K	1269.3	1322.7	1364.8	1391.2	1418.3	–	1451.4	1465.4	1475.6	1486.7
308.15 K	1264.1	1317.5	1359.7	1386.2	–	1427.2	1446.5	1460.5	1470.8	1481.9
313.15 K	1258.9	1312.4	1354.7	–	1408.4	1422.3	–	1455.7	1465.9	1477
318.15 K	1253.7	1307.3	1349.6	1376.2	1403.5	1417.3	1436.7	–	1461.1	1472.3
323.15 K	1248.5	–	1344.6	1371.2	1398.5	1412.4	–	1446	1456.3	1467.5
328.15 K	1243.3	1297.1	–	1366.2	1393.6	1407.5	1427	–	1451.5	1462.7
333.15 K	–	1292	1334.5	1361.2	1388.7	1402.7	1422.2	1436.4	1446.7	1458
338.15 K	1232.9	1286.9	–	1356.3	–	1397.8	1417.4	1431.6	1441.9	1453.2
343.15 K	–	1281.8	1324.5	1351.3	–	–	1412.6	1426.8	–	1448.5
348.15 K	–	–	–	1346.4	–	1388.1	–	1422.1	1432.4	1443.8

CCCCn1cc[n+](C)c1C.O=S(=O)([N-]S(=O)(=O)C(F)(F)F)C(F)(F)F + CC1COC(=O)O1
Conditions	mass density [kg/m3]
288.15 K, x1 = 0.1002	1270.8
288.15 K, x1 = 0.15	1293
288.15 K, x1 = 0.2001	1311.4
288.15 K, x1 = 0.3985	1362
288.15 K, x1 = 0.5984	1392.8
288.15 K, x1 = 0.7018	1404.4
288.15 K, x1 = 0.7915	1412.8
288.15 K, x1 = 0.8433	1417.1
288.15 K, x1 = 0.8805	1420
288.15 K, x1 = 1	1428.3
293.15 K, x1 = 0.0501	1238.3
293.15 K, x1 = 0.15	1287.9
293.15 K, x1 = 0.2001	1306.4
293.15 K, x1 = 0.3002	1335.6
293.15 K, x1 = 0.5002	1374.6
293.15 K, x1 = 0.5984	1388
293.15 K, x1 = 0.7018	1399.6
293.15 K, x1 = 0.7915	1408
293.15 K, x1 = 0.8433	1412.4
293.15 K, x1 = 0.8805	1415.3
293.15 K, x1 = 1	1423.6
298.15 K, x1 = 0.0501	1233.1
298.15 K, x1 = 0.1002	1260.5
298.15 K, x1 = 0.15	1282.8
298.15 K, x1 = 0.3002	1330.6
298.15 K, x1 = 0.3985	1352.3
298.15 K, x1 = 0.5002	1369.8
298.15 K, x1 = 0.5984	1383.3
298.15 K, x1 = 0.7018	1394.9
298.15 K, x1 = 0.7915	1403.3
298.15 K, x1 = 0.8433	1407.7
298.15 K, x1 = 0.8805	1410.6
298.15 K, x1 = 1	1419
303.15 K, x1 = 0.0501	1227.9
303.15 K, x1 = 0.15	1277.7
303.15 K, x1 = 0.2001	1296.3
303.15 K, x1 = 0.3002	1325.7
303.15 K, x1 = 0.3985	1347.4
303.15 K, x1 = 0.5002	1365
303.15 K, x1 = 0.5984	1378.5
303.15 K, x1 = 0.7915	1398.6
303.15 K, x1 = 0.8433	1403
303.15 K, x1 = 0.8805	1405.9
308.15 K, x1 = 0.0501	1222.6
308.15 K, x1 = 0.15	1272.7
308.15 K, x1 = 0.2001	1291.3
308.15 K, x1 = 0.3985	1342.5
308.15 K, x1 = 0.5002	1360.2
308.15 K, x1 = 0.5984	1373.7
308.15 K, x1 = 0.7018	1385.4
308.15 K, x1 = 0.7915	1393.9
308.15 K, x1 = 0.8433	1398.3
308.15 K, x1 = 0.8805	1401.2
308.15 K, x1 = 1	1409.7
313.15 K, x1 = 0.0501	1217.4
313.15 K, x1 = 0.1002	1245.1
313.15 K, x1 = 0.15	1267.6
313.15 K, x1 = 0.2001	1286.3
313.15 K, x1 = 0.3002	1315.8
313.15 K, x1 = 0.3985	1337.7
313.15 K, x1 = 0.5984	1369
313.15 K, x1 = 0.7018	1380.7
313.15 K, x1 = 0.7915	1389.2
313.15 K, x1 = 0.8805	1396.6
318.15 K, x1 = 0.0501	1212.2
318.15 K, x1 = 0.1002	1239.9
318.15 K, x1 = 0.2001	1281.3
318.15 K, x1 = 0.3002	1310.9
318.15 K, x1 = 0.3985	1332.8
318.15 K, x1 = 0.5002	1350.6
318.15 K, x1 = 0.5984	1364.2
318.15 K, x1 = 0.7018	1376
318.15 K, x1 = 0.7915	1384.6
318.15 K, x1 = 0.8433	1389
318.15 K, x1 = 0.8805	1391.9
323.15 K, x1 = 0.1002	1234.8
323.15 K, x1 = 0.15	1257.5
323.15 K, x1 = 0.2001	1276.3
323.15 K, x1 = 0.3002	1306
323.15 K, x1 = 0.5002	1345.8
323.15 K, x1 = 0.7018	1371.3
323.15 K, x1 = 0.7915	1379.9
323.15 K, x1 = 0.8433	1384.3
323.15 K, x1 = 0.8805	1387.3
323.15 K, x1 = 1	1395.8
328.15 K, x1 = 0.0501	1201.8
328.15 K, x1 = 0.2001	1271.3
328.15 K, x1 = 0.3002	1301.1
328.15 K, x1 = 0.3985	1323.2
328.15 K, x1 = 0.5984	1354.8
328.15 K, x1 = 0.7018	1366.7
328.15 K, x1 = 0.7915	1375.3
328.15 K, x1 = 0.8433	1379.7
328.15 K, x1 = 0.8805	1382.7
328.15 K, x1 = 1	1391.2
333.15 K, x1 = 0.0501	1196.6
333.15 K, x1 = 0.1002	1224.6
333.15 K, x1 = 0.15	1247.4
333.15 K, x1 = 0.2001	1266.3
333.15 K, x1 = 0.3002	1296.2
333.15 K, x1 = 0.3985	1318.4
333.15 K, x1 = 0.5002	1336.3
333.15 K, x1 = 0.5984	1350.1
333.15 K, x1 = 0.7018	1362
333.15 K, x1 = 0.8433	1375.1
333.15 K, x1 = 0.8805	1378.1
338.15 K, x1 = 0.0501	1191.4
338.15 K, x1 = 0.1002	1219.5
338.15 K, x1 = 0.15	1242.3
338.15 K, x1 = 0.2001	1261.3
338.15 K, x1 = 0.3002	1291.3
338.15 K, x1 = 0.3985	1313.6
338.15 K, x1 = 0.5002	1331.6
338.15 K, x1 = 0.5984	1345.4
338.15 K, x1 = 0.7018	1357.4
338.15 K, x1 = 0.7915	1366
338.15 K, x1 = 0.8433	1370.5
338.15 K, x1 = 0.8805	1373.5
338.15 K, x1 = 1	1382.1
343.15 K, x1 = 0.0501	1186.2
343.15 K, x1 = 0.1002	1214.4
343.15 K, x1 = 0.15	1237.3
343.15 K, x1 = 0.2001	1256.3
343.15 K, x1 = 0.3002	1286.5
343.15 K, x1 = 0.3985	1308.8
343.15 K, x1 = 0.5002	1326.8
343.15 K, x1 = 0.5984	1340.7
343.15 K, x1 = 0.7018	1352.7
343.15 K, x1 = 0.7915	1361.4
343.15 K, x1 = 0.8433	1365.9
343.15 K, x1 = 1	1377.5
348.15 K, x1 = 0.0501	1181.1
348.15 K, x1 = 0.1002	1209.3
348.15 K, x1 = 0.15	1232.3
348.15 K, x1 = 0.2001	1251.4
348.15 K, x1 = 0.3002	1281.6
348.15 K, x1 = 0.3985	1304
348.15 K, x1 = 0.5002	1322.1
348.15 K, x1 = 0.5984	1336.1
348.15 K, x1 = 0.7018	1348.1
348.15 K, x1 = 0.8433	1361.3
348.15 K, x1 = 0.8805	1364.3
348.15 K, x1 = 1	1373
